# Measurements taken from PubChem BioAssay (Tox21).
# Inconclusive results, whose numbers are uncertain, are shown with a selection of clear calls. For part of these data: Where the call is inconclusive, the potency comes from a doubtful curve fit. Active and inactive are the calls of the source. Unless noted, the call rests on the fitted dose curve; in most records, active means well fitted curve in the direction sought with a large enough effect in the repeat runs; inconclusive means weak or mixed curves; inactive means no such curve, though single readings can be large; an effect the other way counts as inactive or inconclusive.
# How the values were obtained:
# [1] = qHTS assay for small molecule agonists of the p53 signaling pathway (AID 651631; calls by dose curve; further: nearly all actives have a fitted effect of over 15% in size; further: potency means the concentration at half of the fitted maximal effect; on activation: on the % scale 0 is the no-effect control and ±100 the full control effect); settings: HCT-116 p53RE-bla reporter, beta-lactamase FRET ratio, 16 h; activation: at 73.3 µM (top of the series) unless noted
# Outline: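 Beta-lactamase reporter activity under p53 response elements was quantified in HCT-116 cells by FRET fluorescence, following 16 h incubation with test compounds at 37 °C and 2 h substrate development at room temperature.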
# [2] = target: Glucocorticoid receptor (Homo sapiens) (UniProt P04150); assay: qHTS assay to identify small molecule antagonists of the glucocorticoid receptor (GR) signaling pathway (AID 720692; active means well fitted inhibition curve with a large enough effect in the signal ratio in the repeat runs, not every such curve was filed as active; inconclusive means weak or mixed curves, or effect the other way; inactive means no such curve, though single readings can be large or run the other way; the % refers to the signal ratio; further: potency means the concentration at half of the fitted maximal effect); settings: GR-bla HeLa, beta-lactamase FRET ratio, dexamethasone-stimulated, 18 h; activity change, negative = inhibition: at 58.5 µM (top of the series) unless noted
# Outline: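 GR-bla HeLa cells (beta-lactamase reporter under glucocorticoid response element) were pre-plated 4 h at 37 C, treated with compounds plus 5 nM dexamethasone (final) for 18 h, then read by LiveBLAzer B/G FRET fluorescence after 2 h.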
# [3] = qHTS assay for identifying genotoxic compounds that show differential cytotoxicity against isogenic chicken DT40 cell lines with known DNA damage response pathways - Rev3 mutant cell line (AID 743014); settings: chicken DT40 Rev3-/- viability, CellTiter-Glo, 40 h; activity, negative = cytotoxicity: at 68.4 µM (top of the series) unless noted; further: nearly all actives have a fitted effect of over 55% in size; further: potency means the concentration at half of the fitted maximal effect
# [4] = qHTS assay to identify small molecule antagonists of the androgen receptor (AR) signaling pathway - cell viability counter screen (AID 743033; further: nearly all actives have a fitted effect of over 45% in size; further: potency means the concentration at half of the fitted maximal effect); settings: AR-bla HEK293 viability, CellTiter-Glo luminescence, 16 h; activity change, negative = cytotoxicity: at 58.5 µM (top of the series) unless noted
# [5] = qHTS assay to identify small molecule antagonists of the estrogen receptor alpha (ER-alpha) signaling pathway - cell viability counter screen (AID 743074; calls by dose curve;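 further: HEK293 cells carrying ER-alpha-UAS-bla reporter stimulated with 17beta-estradiol; on the % scale 0 is the no-effect control and ±100 the full control effect; nearly all actives have a fitted effect of over 45% in size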)
# [6] = qHTS assay to identify small molecule antagonists of the estrogen receptor alpha (ER-alpha) signaling pathway using the BG1 cell line (AID 743080; calls by dose curve;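 further: BG1 cells stimulated with 17beta-estradiol alongside compound; nearly all actives have a fitted effect of over 25% in size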; further: potency means the concentration at half of the fitted maximal effect); settings: BG1Luc4E2 ERE-luciferase antagonist mode, luminescence; activity change, negative = inhibition: at 70.3 µM (top of the series) unless noted
# Outline: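 BG1-Luc-4E2 cells (endogenous full-length ER-alpha, 4xERE luciferase) hormone-starved 5 days in charcoal-stripped FBS, plated 4,000/well for 24 h, then compound plus 17beta-estradiol for 21.5 h at 37 C; ONE-Glo luminescence read.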
# [7] = qHTS assay to identify small molecule antagonists of the estrogen receptor alpha (ER-alpha) signaling pathway using the BG1 cell line - cell viability counter screen (AID 743081); settings: BG1Luc4E2 viability, CellTiter-Fluor, 22 h; activity change, negative = cytotoxicity: at 70.3 µM (top of the series) unless noted;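 further: compound given together with 17beta-estradiol as the ER stimulus; potency means the concentration at half of the fitted maximal effect; nearly all actives have a fitted effect of over 45% in size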
# [8] = target: Peroxisome proliferator-activated receptor gamma (Homo sapiens) (UniProt P37231); assay: qHTS assay to identify small molecule agonists of the peroxisome proliferator-activated receptor gamma (PPARg) signaling pathway (AID 743094; active means well fitted activation curve with a large enough effect in the signal ratio in the repeat runs, not every such curve was filed as active; inconclusive means weak or mixed curves, or effect the other way; inactive means no such curve, though single readings can be large or run the other way; the % refers to the signal ratio; further: on the % scale 0 is the no-effect control and ±100 the full control effect); settings: HEK293H PPARg-UAS-bla, beta-lactamase FRET ratio, 17 h; activation: at 57 µM (top of the series) unless noted
# Outline: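 GeneBLAzer PPARg UAS-bla HEK293H cells carrying a stably integrated beta-lactamase reporter were pre-incubated 5 h at 37C, then exposed to compounds in DMSO for 17 h at 37C; LiveBLAzer B/G FRET substrate was added for 1 h at room temperature and fluorescence read.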
# [9] = target: Nuclear receptor subfamily 1 group I member 2 (Homo sapiens) (UniProt O75469); assay: Human pregnane X receptor (PXR) activation by small molecules, qHTS assay (AID 1346985); further: nearly all actives have a fitted effect of over 40% in size; further: potency means the concentration at half of the fitted maximal effect
# Outline: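 DPX-2 cells (HepG2 co-transfected with a PXR response element and a CYP3A4-promoter luciferase construct) were seeded at 2,000 per well, rested 5 hr at 37C, then exposed to DMSO-dissolved compounds for 24 hr. Activation was read as luciferase luminescence.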
# [10] = qHTS assay for small molecule disruptors of the mitochondrial membrane potential (AID 720635); settings: HepG2 mitochondrial membrane potential, Mito-MPS dye ratio; further: potency means the concentration at half of the fitted maximal effect
# Outline: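 HepG2 cells exposed to compound 1 hr at 37C, then Mito-MPS dye 30 min. Ratio read of aggregate (540/590 nm) versus monomer (490/535 nm) fluorescence.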
# [11] = test system: thyroid hormone receptor (rat, GH3 cells); assay: qHTS assay to identify small molecule agonists of the thyroid receptor (TR) signaling pathway (AID 743066; calls by dose curve; further: on the % scale 0 is the no-effect control and ±100 the full control effect); settings: GH3.TRE-Luc cells, TR agonist luciferase, 24 h; activation: at 83.9 µM (top of the series) unless noted
# [12] = qHTS assay to identify aromatase inhibitors - cell viability counter screen (AID 743084); settings: MCF-7 aro ERE viability, CellTiter-Fluor, 24 h; activity change, negative = cytotoxicity: at 70.3 µM (top of the series) unless noted;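 further: cells stimulated with testosterone during compound exposure; potency means the concentration at half of the fitted maximal effect; nearly all actives have a fitted effect of over 55% in size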
# [13] = qHTS assay for identifying genotoxic compounds that show differential cytotoxicity against isogenic chicken DT40 cell lines with known DNA damage response pathways - wild type cell line (AID 743012); settings: DT40 wild type chicken cells viability, CellTiter-Glo, 40 h; activity change, negative = cytotoxicity: at 68.4 µM (top of the series) unless noted; further: nearly all actives have a fitted effect of over 60% in size; further: potency means the concentration at half of the fitted maximal effect
# Outline: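 Parental DNA repair-proficient DT40 cells, 300 per well, were pre-incubated ~0.5 h at 37 C/5% CO2, pin-dosed with compounds in DMSO, then incubated 40 h. Viability was read as CellTiter-Glo luminescence after 30 min at room temperature.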
# [14] = qHTS assay to identify small molecule antagonists of the thyroid receptor (TR) signaling pathway - cell viability counter screen (AID 743064); settings: GH3.TRE-Luc viability, CellTiter-Fluor, 24 h; activity change, negative = cytotoxic: at 70.3 µM (top of the series) unless noted; further: potency means the concentration at half of the fitted maximal effect; nearly all actives have a fitted effect of over 50% in size
# Outline: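 CellTiter-Fluor readout, 30 min at 37 °C/5% CO2, following 23.5 h incubation of GH3.TRE-Luc cells with test compound and 1 nM T3 (final).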
# [15] = target: Estrogen receptor (Homo sapiens) (UniProt P03372); assay: qHTS assay to identify small molecule antagonists of the estrogen receptor alpha (ER-alpha) signaling pathway (AID 743069; active means well fitted curve in the direction sought with a large enough effect in the signal ratio in the repeat runs, not every such curve was filed as active; inconclusive means weak or mixed curves, or effect the other way; inactive means no such curve, though single readings can be large or run the other way; the % refers to the signal ratio; further: potency means the concentration at half of the fitted maximal effect); settings: HEK293 ER-alpha-UAS-bla, beta-lactamase ratio, antagonist mode; activity, negative = inhibition: at 69.4 µM (top of the series) unless noted
# Outline: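 Reporter cells (ER-alpha-bla, HEK293 background) are conditioned overnight in stripped-serum medium (2% charcoal-stripped FBS). Compound and 17beta-estradiol exposure runs 18 hr at 37C, 5% CO2.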
# [16] = target: Estrogen receptor (Homo sapiens) (UniProt P03372); assay: qHTS assay to identify small molecule agonists of the estrogen receptor alpha (ER-alpha) signaling pathway using the BG1 cell line (AID 743079); settings: BG1Luc4E2 cells, ERE-luciferase agonist, 22 h; activation: at 70.3 µM (top of the series) unless noted; further: on the % scale 0 is the no-effect control and ±100 the full control effect; nearly all actives have a fitted effect of over 20% in size
# [17] = target: Glucocorticoid receptor (Homo sapiens) (UniProt P04150); assay: qHTS assay to identify small molecule agonists of the glucocorticoid receptor (GR) signaling pathway (AID 720691; active means well fitted activation curve with a large enough effect in the signal ratio in the repeat runs, not every such curve was filed as active; inconclusive means weak or mixed curves, or effect the other way; inactive means no such curve, though single readings can be large or run the other way; the % refers to the signal ratio; further: on the % scale 0 is the no-effect control and ±100 the full control effect); settings: GR-bla HeLa, beta-lactamase reporter ratio, 18 h; activation: at 62.4 µM (top of the series) unless noted
# Outline: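 GR-bla HeLa cells (beta-lactamase reporter under glucocorticoid response element) were plated 4 h at 37 C/5% CO2, given compounds in DMSO, and incubated 18 h at 37 C. LiveBLAzer B/G FRET substrate was added for 2 h at room temperature, then fluorescence intensity read.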
# [18] = qHTS assay for identifying genotoxic compounds that show differential cytotoxicity against isogenic chicken DT40 cell lines with known DNA damage response pathways - Rad54/Ku70 mutant cell line (AID 743015); settings: DT40 Rad54/Ku70 mutant viability, CellTiter-Glo, 40 h; activity change, negative = cytotoxicity: at 66.8 µM (top of the series) unless noted; further: nearly all actives have a fitted effect of over 60% in size; further: potency means the concentration at half of the fitted maximal effect
# [19] = ratio activity, negative = MMP loss: at 83.2 µM (top of the series) unless noted
# Tags describe the fitted curve by direction and shape or compound fluorescence and quenching.
# Sequence of UniProt P03372 (P03372 whole entry, looked up): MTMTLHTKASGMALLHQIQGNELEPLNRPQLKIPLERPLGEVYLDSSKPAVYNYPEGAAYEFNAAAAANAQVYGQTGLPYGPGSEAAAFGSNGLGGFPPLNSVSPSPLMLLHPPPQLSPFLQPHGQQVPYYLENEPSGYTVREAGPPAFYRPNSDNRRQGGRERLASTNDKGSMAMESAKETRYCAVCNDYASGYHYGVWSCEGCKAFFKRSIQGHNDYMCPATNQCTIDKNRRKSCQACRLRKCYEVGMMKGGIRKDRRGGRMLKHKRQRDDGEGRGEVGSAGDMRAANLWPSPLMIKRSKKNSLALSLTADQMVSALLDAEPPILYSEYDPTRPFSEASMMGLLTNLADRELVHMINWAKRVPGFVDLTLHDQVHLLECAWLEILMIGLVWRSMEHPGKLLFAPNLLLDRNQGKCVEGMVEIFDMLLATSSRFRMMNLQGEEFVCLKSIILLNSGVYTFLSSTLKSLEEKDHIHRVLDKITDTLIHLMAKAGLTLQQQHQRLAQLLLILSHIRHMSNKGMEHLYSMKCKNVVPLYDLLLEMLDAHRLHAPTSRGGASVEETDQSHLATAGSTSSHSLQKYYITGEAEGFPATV
# Sequence of UniProt P04150 (P04150 whole entry, looked up): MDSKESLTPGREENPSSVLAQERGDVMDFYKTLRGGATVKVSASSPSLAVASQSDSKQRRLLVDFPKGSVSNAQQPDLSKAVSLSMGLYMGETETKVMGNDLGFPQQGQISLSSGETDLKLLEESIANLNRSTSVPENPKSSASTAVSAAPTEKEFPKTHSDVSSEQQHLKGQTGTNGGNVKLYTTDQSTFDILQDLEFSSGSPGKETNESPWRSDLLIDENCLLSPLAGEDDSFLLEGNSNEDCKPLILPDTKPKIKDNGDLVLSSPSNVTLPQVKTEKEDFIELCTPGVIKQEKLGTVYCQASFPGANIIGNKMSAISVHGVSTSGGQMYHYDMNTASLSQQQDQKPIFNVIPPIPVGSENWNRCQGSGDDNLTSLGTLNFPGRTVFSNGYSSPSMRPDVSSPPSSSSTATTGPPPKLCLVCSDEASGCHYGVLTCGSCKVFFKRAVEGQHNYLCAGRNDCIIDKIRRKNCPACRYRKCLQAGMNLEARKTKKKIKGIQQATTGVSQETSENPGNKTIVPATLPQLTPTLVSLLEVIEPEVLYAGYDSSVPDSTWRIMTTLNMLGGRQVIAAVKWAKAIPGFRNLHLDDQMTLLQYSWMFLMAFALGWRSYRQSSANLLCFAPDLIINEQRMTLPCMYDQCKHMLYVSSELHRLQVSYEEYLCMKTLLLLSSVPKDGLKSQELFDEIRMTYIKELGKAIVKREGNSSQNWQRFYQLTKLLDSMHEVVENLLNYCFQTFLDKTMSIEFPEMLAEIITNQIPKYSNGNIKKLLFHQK
# Sequence of UniProt P37231 (P37231 whole entry, looked up): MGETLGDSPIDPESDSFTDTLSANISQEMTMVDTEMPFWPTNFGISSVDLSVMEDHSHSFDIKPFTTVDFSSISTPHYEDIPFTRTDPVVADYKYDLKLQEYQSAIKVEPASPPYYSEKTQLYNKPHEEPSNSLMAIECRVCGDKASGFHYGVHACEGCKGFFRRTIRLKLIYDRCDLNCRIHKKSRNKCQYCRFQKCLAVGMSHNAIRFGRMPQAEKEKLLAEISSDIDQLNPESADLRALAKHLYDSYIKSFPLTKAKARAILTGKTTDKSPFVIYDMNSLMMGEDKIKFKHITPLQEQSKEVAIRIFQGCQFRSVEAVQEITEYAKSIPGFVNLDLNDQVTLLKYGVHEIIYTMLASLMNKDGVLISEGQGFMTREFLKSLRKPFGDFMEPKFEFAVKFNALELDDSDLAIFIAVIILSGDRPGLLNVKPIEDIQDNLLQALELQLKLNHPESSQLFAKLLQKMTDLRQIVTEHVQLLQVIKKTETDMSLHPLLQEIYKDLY
structure (smiles),measurement,setting,value
C[Se]CC[C@H](N)C(=O)O,Potency,[1],inactive
same,Potency,[2],inactive
same,Potency,[3],"inconclusive: 21.1 µM [rising, partial curve, poor fit]"
same,Potency,[4],"inconclusive: 0.0054 µM [rising, full curve, poor fit]"
same,Potency,[5],inactive
same,Potency,[6],"inconclusive: 26.6 µM [falling, partial curve, poor fit]"
same,Potency,[7],"inconclusive: 0.0211 µM [rising, full curve, poor fit]"
same,Potency,[8],inactive
same,Potency,[9],inactive
CCN(CC)CCCC(C)Nc1cc(/C=C/c2ccccc2Cl)nc2cc(Cl)ccc12 (stereo not drawn),Potency,[10]; [19],"inconclusive: 6.68 µM [activator, full curve, poor fit]"
same,"activity change, negative = inhibition",[2],inconclusive: -16%
same,Potency,[4],"inconclusive: 26.8 µM [cytotoxic, single point]"
same,activation,[11],inconclusive: -8.35% [phenotype inactive]
same,Potency,[7],"inconclusive: 29.8 µM [cytotoxic, partial curve, poor fit]"
same,Potency,[12],"inconclusive: 33.5 µM [cytotoxic, partial curve, poor fit]"
same,Potency,[9],active: 22.4 µM
CCCCCCCCO,Potency,[1],inactive
same,"ratio activity, negative = MMP loss",[10]; at 95.3 µM (top of the series),inactive: -7.69%
same,"ratio activity, negative = MMP loss",[10]; [19],inconclusive: 27.1% [at 95.3 µM]
same,Potency,[13],inactive
same,Potency,[14],"inconclusive: 28.4 µM [rising, full curve, poor fit]"
same,"activity, negative = inhibition",[15],inconclusive: 22% [at 79.1 µM]
same,activation,[16],inconclusive: 0.999% [phenotype inactive] [at 95 µM]
same,Potency,[6],inactive
same,Potency,[8],inactive
NS(=O)(=O)c1cc2c(cc1Cl)NC(C(Cl)Cl)NS2(=O)=O (stereo not drawn),Potency,[3],"inconclusive: 10.1 µM [rising, partial curve, poor fit]"
same,Potency,[4],"inconclusive: 5.74 µM [cytotoxic, single point]"
CCCC(=O)Nc1c(I)cc(I)c(CC(CC)C(=O)O)c1I (stereo not drawn),Potency,[1],"inconclusive: 0.119 µM [activator, single point]"
same,Potency,[10]; [19],inactive
same,Potency,[17],inactive
same,Potency,[13],inactive
same,Potency,[4],inactive
same,Potency,[14],"inconclusive: 23.7 µM [cytotoxic, partial curve]"
same,Potency,[7],"inconclusive: 29.8 µM [cytotoxic, partial curve, poor fit]"
same,Potency,[12],"inconclusive: 29.8 µM [cytotoxic, single point]"
same,Potency,[9],"inconclusive: 14.1 µM [activator, partial curve]"
CC(=O)Nc1ccc(NC(=S)NC(=O)c2ccc(C(C)(C)C)cc2)cc1,Potency,[10]; [19],active: 2.11 µM
same,Potency,[2],"inconclusive: 30.1 µM [inhibitor, single point]"
same,Potency,[18],"inconclusive: 4.73 µM [cytotoxic, full curve]"
same,Potency,[14],active: 8.41 µM
same,Potency,[9],"inconclusive: 2.24 µM [activator, full curve, poor fit]"
COc1cc2c(cc1OC)[C@@H](c1ccccc1)CN(C)CC2,Potency,[10]; [19],"inconclusive: 27.8 µM [activator, partial curve, poor fit]"
same,Potency,[15],"inconclusive: 16.9 µM [activator, partial curve, poor fit]"
same,Potency,[16],inactive
same,Potency,[9],"inconclusive: 31.6 µM [activator, single point]"
COc1ccccc1N1CCN(CCCC(=O)c2ccc(F)cc2)CC1,"ratio activity, negative = MMP loss",[10]; [19],inconclusive: 31.7%
same,Potency,[17],inactive
same,Potency,[7],"inconclusive: 37.6 µM [cytotoxic, partial curve, poor fit]"
same,Potency,[9],active: 7.94 µM
COc1cc2c(cc1OC)CC(=O)N(CCCN(C)C[C@H]1Cc3cc(OC)c(OC)cc31)CC2,"ratio activity, negative = MMP loss",[10]; [19],inconclusive: -30.2%
same,"activity change, negative = inhibition",[2],inconclusive: 9.77%
same,Potency,[13],"inconclusive: 6.68 µM [cytotoxic, full curve]"
same,Potency,[3],"inconclusive: 5.96 µM [cytotoxic, full curve]"
same,Potency,[4],inactive
same,Potency,[6],inactive
same,Potency,[9],"inconclusive: 17.8 µM [activator, single point]"
Cc1ccc(N)nc1,Potency,[3],inactive
C=CCN1CCCC1CNC(=O)c1cc(S(N)(=O)=O)cc(OC)c1OC (stereo not drawn),Potency,[3],inactive
same,Potency,[18],"inconclusive: 33.5 µM [cytotoxic, single point]"
same,Potency,[9],"inconclusive: 25.1 µM [activator, partial curve, poor fit]"
OC[C@@H](O)C(O)[C@H](O)CO,Potency,[18],inactive
same,Potency,[4],"inconclusive: 0.0011 µM [cytotoxic, full curve, poor fit]"
same,Potency,[9],"inconclusive: 10 µM [activator, partial curve]"
